From the supplement of paper PMC5499739
In all, about 16,000 sequences were measured (“Z-score”: median about -0.37, highest 2% from about 3.1 on). This is one part of the list.

test system: RBM10 RRM1-ZnF-RRM2 (GST-tagged construct); test: RNAcompete 7-mer binding Z-score; higher = stronger binding preference
In short: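 GST-tagged RBM10 constructs (20 pmol) were mixed with a designed pool of 241 399 RNAs up to 41 nt (1.5 nmol), transcribed from microarray-derived DNA templates. Mixing was in 1 ml Hepes pH 7.8 buffer with KCl, NaCl, glycerol, DTT, BSA and glutathione Sepharose beads. Binding ran 30 min at 4°C, followed by four 2-min washes at 4°C, and bound RNA was identified by microarray hybridisation. Each heptamer motif received a one-sided Z-score for enrichment across probes containing it.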

Sequence	RNAcompete 7-mer binding Z-score
UGGCCGG	0.665
GCUAGUC	-0.533
UGUUAGA	-0.078
UGAAAUA	-0.213
GGAUGGC	2.46
CGAUAAC	-0.435
CUGGCAC	-0.162
CUUUUCC	-0.704
CGGCAUG	0.41
GCCUUGU	-0.923
CGCCACU	-0.788
CUAACAU	-0.541
ACGGUCA	0.111
CUGAAGU	-0.347
CGGGCUA	0.355
UUGCUUA	-0.781
UGCCGGG	0.483
ACCUAAC	-0.832
GGUAGGA	3.37
UGCGUCG	-0.0233
AGCACAU	-0.358
CAUUGGU	0.00216
ACUCAUU	-0.927

Sequence	RNAcompete 7-mer binding Z-score
UUUACCA	-0.694
CGCUAGU	-0.599
GUGGCCA	0.403
CUGUUCU	-0.89
UUGCGUG	0.0131
AUGAGGU	1.83
UCUCGUG	-0.471
GAACGGU	1.56
CGUCUGG	-0.271
GUAUAGC	0.294
UAUGCUG	-0.304
GACCGAC	-0.704
CACGUGC	-0.428
CUACCUC	-0.781
AUCCUUU	-0.894
GCUCCGU	-0.704
AAAGUAC	-0.0634
GUUCGAC	-0.337
ACCCUAA	-0.715
CUCACGG	-0.537
AUCAUAA	-0.38
UGCUAUC	-0.606
UGUAUCA	-0.326

Sequence	RNAcompete 7-mer binding Z-score
GAUGCAU	-0.0634
CAACGAA	-0.337
UAUAGUG	0.206
GAUUGCA	0.00216
CAAUUAG	0.0386
CUGAGGG	1.53
ACUUGCU	-0.817
AGAGUAA	0.621
AUAGCGA	0.341
UUACUUU	-0.876
GUAAGCC	-0.173
CAUAAGU	-0.417
GUACCGU	-0.0561
AGUAACU	-0.191
GAGAAGU	0.905
CAUACGA	-0.46
GCUAACG	-0.169
AGUCUCC	-0.592
UAACAAU	-0.315
GAAGCAG	1.26
CGAUUAC	-0.486
GAGAGAG	1.09
CAGAAGC	-0.0161

Sequence	RNAcompete 7-mer binding Z-score
GCUAGUG	0.0422
UGCGUGU	-0.118
UUCAGCC	-0.795
ACUAUAA	-0.442
UAGCUUC	-0.77
UGUCCUC	-0.766
UUUCACA	-0.61
UGGGGAA	3.58
ACCUUCA	-0.945
ACCUUCC	-0.839
UGAUCCG	-0.65
UACUUAC	-0.533
AUCGUGC	-0.548
UGUGAGG	1.89
GGUAAUC	0.705
GGGGCUC	1.23
UGCUUGG	-0.293
GAUAAGC	0.144
GGAGAAU	1.58
AAUGUAG	0.793
ACUAGUA	-0.384
CAUGGAU	1.09
UGAAUUU	-0.584

Sequence	RNAcompete 7-mer binding Z-score
CAGGAUC	0.275
UGACGCG	0.0422
GAACUGA	-0.067
UAGCACU	-0.424
UAACUCU	-0.817
UCUGGCU	-0.723
CCUGCAC	-0.668
UUCCGUA	-0.551
UUGCUAU	-0.584
CACUUCA	-0.734
CCCAGGU	-0.0343
CGGAAUA	0.65
AGCAGUA	0.148
CAUUAAC	-0.646
AUACCCA	-0.635
UAUCCUU	-0.788
CUACUAU	-0.657
AUCCAUC	-0.737
UGUGUCU	-0.351
AUCACUU	-0.887
CGAAGGG	2.68
CUGAAAA	-0.511
UGUACUC	-0.643

Sequence	RNAcompete 7-mer binding Z-score
CCCGGGU	0.235
UCGUGGU	0.359
GCGUGCU	-0.318
AUGCCAG	-0.202
AGAUUCA	-0.304
GUCUUCC	-0.533
ACGCUCU	-0.737
GAAUGAG	1.28
CAGUAUA	-0.133
UACAGAC	-0.344
GCCGUCU	-0.755
UGUUAGC	-0.679
AUUUUUA	-0.643
UGGAAGU	1.6
GAGUCCU	-0.453
ACUGUAU	-0.555
AGUAUUA	-0.216
CGGAGGC	1.24
CCUGCAG	-0.788
AUACCGU	-0.482
CGGCGUC	0.0204
UGCUCUC	-0.741
GCCACGC	-0.366

Sequence	RNAcompete 7-mer binding Z-score
GCAAAUC	-0.358
CGGCCCA	-0.617
CCUUGGA	-0.475
UCCUCUU	-0.613
GUGCAAG	0.844
GAGUUUA	-0.0488
CACUACG	-0.409
CGCUACA	-0.621
CGCAGAC	-0.322
CCUCUUA	-0.843
GCUAAGA	-0.187
CGGAUAC	1.07
CUCAUCC	-0.836
GGAUCAU	0.749
AGCCUCC	-0.759
GGAGAGU	1.69
CUCGUUC	-0.61
CUGAAGG	0.902
UCUUUAG	-0.723
AUUGGGU	2.74
CCGGGUC	0.538
UAGGUAG	2.27
AAUGACA	0.0969

Sequence	RNAcompete 7-mer binding Z-score
AGGCCCA	-0.846
GUUUCUA	-0.537
CACUCGA	-0.719
CAUAGUC	-0.548
AAAGUGC	-0.0197
UCCCAUU	-0.843
AACCCGA	-0.737
CCGUGGA	0.0896
UUGUUUU	-0.366
CAUUGAA	-0.311
AGUUUCG	-0.453
CCCUAGC	-0.788
CGAACCA	-0.453
AACAAGU	-0.125
UGGAUUC	0.126
GGUAUUU	0.177
AGGCAUU	-0.0889
AGCUGCU	-0.559
GCCACCC	-0.89
UACCCGG	-0.231
GCUUCAC	-0.686
GAAUCCA	-0.366
